# Assay results as given in paper PMC6212790.
# The list shows a part of the results. At the low end of the ranking the order means little.
# Biological target: T1, GST-Rok-C97-191 (UniProt O34857)
# T1 sequence: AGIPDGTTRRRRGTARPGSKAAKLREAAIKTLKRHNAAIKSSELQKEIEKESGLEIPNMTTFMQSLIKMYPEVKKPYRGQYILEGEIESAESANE
# Test: protein binding microarray;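 note: rank score from −0.5 (least bound) to 0.5 (best bound)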
# Conditions: Rok is a gene silencer of Bacillus subtilis; high values mean tight binding; most listed sequences are background and not binding sites; double strand, one strand shown
row,Sequence,binding signal [E-score]
1,GCCCTTCC,-0.229
2,AAAGATTT,-0.0491
3,AACTTGCG,0.08
4,TACAACAA,0.353
5,TGATCGAA,0.0159
6,AGGGCTCA,-0.271
7,GGGGTTTA,-0.266
8,CCTTCAGC,-0.152
9,AGATCGAC,0.102
10,GCCCAGGC,-0.25
11,AGAAAACT,0.21
12,CGATAAGC,0.0146
13,CGGGCCCG,-0.236
14,GGGTTTCA,-0.236
15,CACGAATG,-0.00797
16,GAAGGGCA,-0.202
17,ATTCAACG,-0.00565
18,GCTACGAA,0.115
19,TAATAGGA,0.219
20,GCACGAGC,-0.181
21,AAGCTATA,0.238
22,ATACTAAC,0.103
23,AAACACGT,0.0495
24,GCATCAAA,0.0863
25,GAAGAGGC,-0.241

row,Sequence,binding signal [E-score]
1,CTGAGGAC,-0.124
2,AAATTGCT,0.314
3,CTTCCAGA,-0.123
4,TGATCTAA,-0.00807
5,AACGAGAA,-0.0372
6,AACCCACG,-0.134
7,TGAACACA,-0.205
8,AGACGGTA,0.0923
9,AGGAGTCC,-0.0963
10,GCCAGACC,-0.259
11,GATGGTCA,-0.028
12,ACAAGCGG,-0.0216
13,CAAAAAAA,0.0672
14,CCACGCGC,-0.0582
15,AACCTACA,0.315
16,ATAAGAGC,0.152
17,AACACTAC,0.143
18,GAACCGGC,-0.0589
19,ACTAAGCT,0.115
20,CTAGCTCC,0.0154
21,CACGATTA,-0.00565
22,CTCCGTAC,0.0194
23,GTGCTCCA,-0.193
24,ATAACCCG,-0.0342
25,ACTAGCTC,0.207

row,Sequence,binding signal [E-score]
1,TGTTGAAA,0.107
2,GCAGAGCC,-0.374
3,CTCCTTCC,-0.215
4,GCCCCCCC,-0.319
5,CGCTCCAA,-0.198
6,ACGAACCT,-0.0562
7,CATCCAGG,-0.0899
8,AAGAGGTC,0.0527
9,AAGCTGGA,-0.0851
10,AACTGGAA,-0.00748
11,ATCCGAAA,-0.045
12,ACTGAGCG,-0.0359
13,ACCGCAGC,0.0454
14,ACCCAGAT,-0.0264
15,AGTTGTAG,0.248
16,CCATCTCC,-0.25
17,CAATTGAA,0.0478
18,AGGATATC,0.0896
19,GCGCATAA,0.108
20,AACACATT,0.127
21,GCTGGCCA,-0.144
22,ATACAACA,0.27
23,GAACACCA,-0.149
24,CGCCTCCA,0.0132
25,AGAGGTAT,0.124

row,Sequence,binding signal [E-score]
1,ATGTAGAC,0.142
2,CAGGGCAG,-0.359
3,ACAGTGAA,0.0417
4,AAACACAG,-0.00421
5,ATCGTGGG,-0.0344
6,GTCCGATA,-0.0317
7,GACATCTC,-0.142
8,AAGGTACA,0.111
9,GTCCTACA,-0.0533
10,CAGGTTAC,-0.0355
11,GCGCTAGA,0.136
12,GAACCCGA,-0.0854
13,ATAGACAG,-0.177
14,CACGCTAA,-0.0228
15,ATTGCACA,-0.0584
16,ACCATCAA,-0.143
17,ATGGTATG,0.126
18,CGGGGGCA,-0.295
19,CTTCCACA,-0.0282
20,GTCCCCTA,-0.296
21,AGGACGTG,0.0647
22,CGGCTCGA,-0.118
23,ATAGACTG,-0.0112
24,GACCTCGA,0.000845
25,ATACTGGC,0.0263

row,Sequence,binding signal [E-score]
1,ATGGAGCA,-0.171
2,AACTAAAT,0.379
3,AGACGCTC,0.00269
4,AAGCGCTA,0.204
5,CACCTAGA,0.0776
6,ACGATTCC,0.099
7,CCTCAGTC,-0.363
8,CCGAATAA,0.0699
9,AAATAACA,0.224
10,ATGGCAAC,-0.109
11,CTTTAGGA,-0.068
12,CCCGAGTA,-0.0564
13,AAACGGCA,0.0136
14,CGTGTTGC,-0.0178
15,GGCCTTAC,-0.232
16,GAGGTCCC,-0.241
17,CCTCAGCG,0.0698
18,GCGCCACA,-0.193
19,ACCGCGTC,0.00219
20,AATCGGGA,-0.199
21,GTTTACAA,0.144
22,GGCCCCCC,-0.388
23,ACTTCGAA,0.0207
24,CATAGATG,0.207
25,ACACGACT,0.0378

row,Sequence,binding signal [E-score]
1,ACCTGTAT,0.0303
2,AGTAGTGG,0.253
3,AATACCGC,0.251
4,AGTAGCGA,0.255
5,CTGCTGAC,-0.164
6,CTGATGTC,-0.0573
7,CACGACAC,-0.123
8,AAAGTTGG,0.0929
9,ATATTAGA,0.243
10,CGTCAAAA,-0.0887
11,CTGCCGTC,-0.219
12,GAAATCGC,0.0982
13,CTTGAAGA,-0.0244
14,CGCCGTGA,0.0507
15,GAGCATAC,-0.198
16,AGAAGCGG,-0.262
17,GGAGATCC,-0.135
18,TCTACGCA,-0.13
19,CTAATAAA,0.255
20,AAAGGAAT,0.0105
21,AACGCTAC,0.0526
22,AATATGAG,-0.0124
23,AGATACTG,0.148
24,AGGTAGCC,-0.193
25,GCCTACAC,-0.183

row,Sequence,binding signal [E-score]
1,CAGACGCA,-0.191
2,GGGTAAAA,0.206
3,CTGTGGAC,-0.169
4,GAGTCAGC,-0.0411
5,ACCACGGT,0.0791
6,CCCTGGAG,-0.0929
7,CCGAACAG,-0.107
8,CGCCGCAC,-0.237
9,ATGGTCTC,-0.0143
10,GTCGGTAA,0.209
11,CCTTGTCG,-0.0704
12,AATCAAGC,-0.123
13,AAGGCCAG,-0.277
14,TGTTGGAA,-0.217
15,CCGCTTTA,-0.0374
16,TCATACGA,0.00225
17,ACGTAGCA,0.06
18,ACTGCTGC,-0.0528
19,CATGGTTA,0.0882
20,TTGCGCAA,-0.00128
21,AGTAAGAC,-0.118
22,ACTTATCC,0.111
23,ACAGGACA,-0.101
24,AAATTTGG,0.0224
25,CAAAGGTA,0.0763

row,Sequence,binding signal [E-score]
1,AAGCCCAG,-0.195
2,AAACAAAT,-0.0125
3,GCGGGTTA,-0.151
4,GATTATCC,0.077
5,AGTTAGCC,0.152
6,ATGCTCGC,-0.134
7,TGGTCGAA,-0.227
8,AGGCTATA,-0.0506
9,GATCGTCA,-0.00638
10,GCCGAATA,0.0948
11,GATGACTA,0.111
12,ACAGGGCA,-0.232
13,AATGACGC,-0.115
14,CGTGTAGA,-0.0913
15,ACTGTCTG,-0.0894
16,ACTAACCC,-0.0437
17,CCAGGCGG,-0.328
18,CCAGTCAC,-0.146
19,CTGTTACA,0.136
20,AAGGGCCT,-0.385
21,AATAGCGG,0.105
22,CTCGGATC,-0.06
23,TAGTCCCA,0.00854
24,ATGATCAA,0.0844
25,ATCTACTA,0.456

row,Sequence,binding signal [E-score]
1,ACTCACCT,0.117
2,AGTCCAGG,-0.193
3,TAGTTATA,0.39
4,TCCCCTCA,-0.186
5,ATCGCTAA,0.0943
6,ACCGTACT,0.132
7,ATGTTTAG,0.0663
8,AAATGTGC,0.163
9,AAGCGAGA,-0.187
10,AGATTACT,0.254
11,ACCTGCCT,-0.195
12,ACACATTG,0.0785
13,GATCGCCA,-0.0223
14,CCAGGATC,-0.0112
15,AGGTGGCC,-0.324
16,AACTGGCG,-0.0955
17,AGGCTCCG,-0.212
18,ATTCGCAA,-0.000958
19,ACTCCGTC,-0.111
20,CTAATTAA,0.275
21,CTCTAAGC,-0.1
22,CATTCGCG,-0.218
23,GATAACGC,0.138
24,ACGTACGC,-0.0326
25,AATGGAAA,0.0342

row,Sequence,binding signal [E-score]
1,CATGCGCG,-0.21
2,AAAGGGAC,-0.117
3,AAGGGTGG,-0.149
4,CATACCAC,0.126
5,GCCAATCA,-0.2
6,AAAGTAGG,0.262
7,CCTTCTGC,-0.174
8,CGGGACGC,-0.365
9,ATATCTAG,0.284
10,ACGGGAAA,0.132
11,GATGACCA,-0.0618
12,ATTCACGG,-0.0815
13,AAAGCCCA,-0.0474
14,ATAGGAAT,0.265
15,GTGGCGGA,-0.18
16,CCCACGCA,-0.185
17,GCGAGAGA,-0.185
18,CTGTACCC,-0.124
19,AGGCCGCC,-0.304
20,ACCGACAG,-0.113
21,ACAGTTTG,0.0529
22,GACCACCA,-0.264
23,CGCATTAG,-0.0446
24,ACCTGGTG,-0.193
25,GTGACAAC,-0.063

row,Sequence,binding signal [E-score]
1,AAGCGTAG,0.111
2,CGTCGTAG,0.0335
3,CAGAGCTG,-0.154
4,ATCGTTCC,0.0996
5,ACTAACAT,0.0145
6,TCCTCGAA,-0.235
7,TACGCTCA,-0.14
8,CTCGCAGC,-0.151
9,CCGTCACA,-0.0667
10,ATGAGCAA,0.104
11,ATAGTCCA,-0.0947
12,ATCTTGGC,-0.0932
13,ATAGGGCC,-0.155
14,GGAACCAA,-0.147
15,CCGTCACC,-0.232
16,GTTGTATA,0.351
17,GAACGTTA,0.178
18,ACACTAAA,0.0728
19,ATACCTCG,0.221
20,GTCACCCA,-0.181
21,AAGCCGTC,-0.253
22,ATTAGAGC,0.129
23,ATGGGCCA,-0.196
24,GGTCCGAC,-0.143
25,GACTGTAC,0.159

row,Sequence,binding signal [E-score]
1,AGACTTAA,-0.0467
2,TCACACAA,0.129
3,AAGTCGCG,-0.113
4,CGTATTGC,0.0959
5,ATTCTGGC,-0.0553
6,AGAAATGG,0.153
7,GAAAAGAA,0.0697
8,GCCGCGAA,-0.185
9,ATGGCATC,0.0263
10,CACACTAG,0.176
11,AACTCTAT,0.0996
12,GCTCAAGC,-0.123
13,CCTACAAC,0.114
14,TTAACGAA,0.0989
15,GCGTAGAA,0.154
16,CAGGTCCG,-0.126
17,GCGGAGAC,-0.215
18,GCCCAGCA,-0.16
19,ACTGGTCG,-0.246
20,ACATGTTG,0.0409
21,CCGCGATA,0.207
22,GCCAGAGC,-0.3
23,TATTCAGA,-0.148
24,CCGCCCAA,-0.0883
25,CTGAACCA,-0.168

row,Sequence,binding signal [E-score]
1,CTATAGCC,0.0226
2,ATGATAAT,0.286
3,CAAACATC,-0.00278
4,CAGAATCA,0.155
5,ATCAAGTA,0.0281
6,AACCCGGT,-0.0892
7,AGAAACTG,0.0822
8,ACTAGTTG,0.313
9,CCCTCCGA,-0.188
10,AAGTCAGA,0.0648
11,AACATGGA,0.103
12,AATTGTAC,0.211
13,CTTTAGAC,-0.00267
14,TCCTTCAA,0.0337
15,GGGGATTA,-0.11
16,GGCTTGGA,-0.316
17,ACCGATCA,0.0534
18,AACCACAC,0.141
19,CCAGCTCC,-0.364
20,AATAGGAA,0.0721
21,AAGCCAGG,-0.144
22,ATTATTCG,0.0864
23,CACGTCCC,-0.114
24,ACTGATAC,0.109
25,ATGGCCGG,-0.258

row,Sequence,binding signal [E-score]
1,CGTATATC,0.316
2,CTTCGCAC,-0.0323
3,GCATGCGC,-0.245
4,CACATACG,-0.0463
5,ACGCGCCG,-0.217
6,CAAGAATG,0.0543
7,AGCCGAAG,-0.121
8,ACACCTTA,-0.112
9,AAGGGGTA,-0.0952
10,GCACGATA,0.103
11,CAACGCAA,0.00655
12,CCCTAAAC,-0.132
13,ATCCCGTC,-0.181
14,ATAGACCA,0.0502
15,ACTTAGGA,0.097
16,AGAGTCGC,-0.248
17,ACGGAGTC,-0.228
18,ATGAACAG,0.0982
19,CACTTCTC,-0.125
